# According to publication PMC4336329 (PLoS ONE, 2015):
# The whole screen tested about 310,000 compounds, of which about 14,000 (4.5%) showed an effect of 50% or more. The effect is printed as a negative number. The list shows a part of the results.
# Target: human ether-à-go-go-related gene (hERG) potassium channel (human, UniProt Q12809)
# Assay: primary screen, population patch clamp on CHO cells stably expressing hERG
# 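Note: peak tail current of the secondary pulse compared with the same well before compound.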
# human ether-à-go-go-related gene (hERG) potassium channel, sequence (Q12809 whole entry, looked up): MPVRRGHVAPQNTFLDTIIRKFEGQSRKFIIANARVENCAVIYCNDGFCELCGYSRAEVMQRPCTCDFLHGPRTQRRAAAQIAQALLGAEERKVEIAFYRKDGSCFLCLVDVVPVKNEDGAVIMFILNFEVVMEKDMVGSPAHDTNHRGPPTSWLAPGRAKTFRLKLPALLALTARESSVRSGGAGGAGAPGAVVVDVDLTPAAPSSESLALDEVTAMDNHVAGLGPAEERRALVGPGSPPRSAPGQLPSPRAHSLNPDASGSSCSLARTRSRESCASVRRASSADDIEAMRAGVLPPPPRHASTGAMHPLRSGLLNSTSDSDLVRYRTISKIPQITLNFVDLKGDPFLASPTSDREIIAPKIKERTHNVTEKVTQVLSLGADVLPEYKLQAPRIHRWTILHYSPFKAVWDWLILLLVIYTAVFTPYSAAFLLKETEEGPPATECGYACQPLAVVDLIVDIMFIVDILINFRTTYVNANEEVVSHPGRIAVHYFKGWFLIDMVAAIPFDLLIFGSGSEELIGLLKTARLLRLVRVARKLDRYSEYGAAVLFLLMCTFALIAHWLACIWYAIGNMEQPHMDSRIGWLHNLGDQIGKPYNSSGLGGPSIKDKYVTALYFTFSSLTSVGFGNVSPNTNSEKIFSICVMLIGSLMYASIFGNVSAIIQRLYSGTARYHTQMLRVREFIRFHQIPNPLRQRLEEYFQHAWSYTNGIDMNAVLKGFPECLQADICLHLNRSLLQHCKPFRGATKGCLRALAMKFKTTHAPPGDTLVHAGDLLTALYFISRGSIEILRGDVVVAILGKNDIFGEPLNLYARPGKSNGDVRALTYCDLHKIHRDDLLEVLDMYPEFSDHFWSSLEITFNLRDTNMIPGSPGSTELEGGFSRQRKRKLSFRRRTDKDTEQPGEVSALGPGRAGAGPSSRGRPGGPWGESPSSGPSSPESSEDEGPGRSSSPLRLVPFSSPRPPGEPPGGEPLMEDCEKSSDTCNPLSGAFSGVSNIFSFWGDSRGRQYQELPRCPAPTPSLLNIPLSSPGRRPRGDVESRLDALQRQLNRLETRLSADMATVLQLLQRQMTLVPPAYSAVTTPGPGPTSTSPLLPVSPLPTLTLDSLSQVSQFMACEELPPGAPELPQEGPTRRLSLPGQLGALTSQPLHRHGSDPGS
row,Compound,"hERG current change (%, negative = inhibition) at 10uM [%]"
1,NC(=O)C1CCN(C(=O)c2ccccc2CCc2ccccc2)CC1,14.1
2,COc1cccc(-c2nnc(NC(=O)c3ccc(Cl)s3)o2)c1,-2.19
3,Cc1cc(C)cc(N2C(=O)CC(Sc3ncn[nH]3)C2=O)c1 (stereo not shown),26.7
4,Nc1ccccc1C#Cc1ccccc1,4.89
5,COc1ccc(/C=N/NC(=O)c2cccnc2)cc1CN1CCCc2ccccc21,-27.4
6,Cn1c(=O)c2c(nc(NCc3ccco3)n2C/C=C/c2ccccc2)n(C)c1=O,7.99
7,Cc1c(OCC(=O)NCCCN2CCOCC2)ccc2c3c(c(=O)oc12)CCCC3,-18.1
8,Cn1c(CNC(=O)CNC(=O)c2cccc(Cl)c2)cc(=O)n(C)c1=O,17.7
9,O=C(O)CCCNC(=O)/C=C/c1ccco1,12.5
10,Cc1cc(NS(=O)(=O)c2cccc([N+](=O)[O-])c2)no1,28.8
11,Cc1cc(C)c(Cn2cnc3ccccc32)c(C)c1,-20.2
12,Cc1cc(N2CCN(C)CC2)nc2ccc(NC(=O)c3ccc(Br)o3)cc12,-77.4
13,COc1ccc(C(c2c(C)n(C)n(-c3ccccc3)c2=O)c2c(C)n(C)n(-c3ccccc3)c2=O)cc1OC,16
14,CC[n+]1c(S(=O)(=O)[O-])ccc2ccc(C)cc21,6.26
15,CCn1c(C(O)c2cc(OC)ccc2OC)nc2ccccc21 (stereo not shown),9.66
16,COc1ccc(NS(=O)(=O)c2cc(N/C(=N\S(=O)(=O)c3ccccc3)c3ccc(F)cc3)ccc2Cl)cc1,-0.199
17,COc1ccccc1CNC(=O)CN1CCN(Cc2ccc(Cl)cc2)C1=O,-10.9
18,COc1ccccc1/C=N/OCc1cc(C(C)=O)ccc1OC,10.1
19,CCOC(=O)c1sc2ncn(CC(=O)NCC3CCCO3)c(=O)c2c1C (stereo not shown),2.14
20,Cc1ccc(S(=O)(=O)N(C)CC(=O)NCCc2c[nH]c3ccccc23)cc1,-29.6
21,Cc1ccc(NC(=O)COC(=O)c2ccccc2Cl)cc1S(=O)(=O)N(C)C,-30.4
22,CCOC(=O)c1ccc(NC(=O)CN2C(=O)NC3(CCC(C)CC3)C2=O)cc1 (stereo not shown),2.08
23,COc1ccc(S(=O)(=O)N(C)c2ccc(C(=O)Nc3ccccc3C(=O)N3CCOCC3)cc2)cc1,-6.94
24,COc1ccc(CNC(=O)C/C(C)=N/NC(=O)COc2ccc(Br)cc2)cc1,-33.3
25,COCC(C)n1c(C)cc(C(=O)COC(=O)/C=C/c2cccc(F)c2)c1C (stereo not shown),-31.6
26,CCCCCCCNC(=O)C1(CC2CC(c3ccc(Cl)cc3)=NO2)CCN(C(=O)OC(C)(C)C)CC1 (stereo not shown),21.1
27,CCN(CC)C(=O)CSc1nc2ccccc2o1,5.03
28,O=C(NCCCn1ccnc1)Nc1ccc2c(c1)OCO2,23.9

row,Compound,"hERG current change (%, negative = inhibition) at 10uM [%]"
1,C(=N\N=C\c1ccccn1)/c1ccccn1,-0.482
2,COc1cccc(CNC(=O)c2ccc(OC)c(S(=O)(=O)NC3CCCC3)c2)c1,-23.7
3,O=C(/C=C/c1cccs1)c1cc(F)ccc1OC(=O)N1CCOCC1,-27.2
4,COC(=O)c1ccccc1S(=O)(=O)N1CCC(C(=O)OCC(=O)NCC(F)(F)F)CC1,-27.1
5,CC(N=Cc1c(O)[nH]c(=O)[nH]c1=O)c1ccccc1 (stereo not shown),3.68
6,O=C(CCC1CCCC1)N=C1SC2CS(=O)(=O)CC2N1c1ccccc1F (stereo not shown),11.2
7,O=C(OCC(=O)N1CCCC1=O)C1CCN(S(=O)(=O)c2ccc(Cl)c(C(F)(F)F)c2)CC1,5.31
8,CCC1(CC)Cc2ccccc2-c2[nH]c(=S)[nH]c(=O)c21,2.43
9,Cc1ccc(C)c(NC(=O)/C(C#N)=C/c2cn(CC(=O)NCc3ccco3)c3ccccc23)c1,17.5
10,COc1cc(OC)cc(-n2nnnc2SCC(=O)NC2CCCC2)c1,-12.8
11,C=CCN1CC(=O)N2C(c3ccccc3)c3[nH]c4ccccc4c3C[C@H]2C1=O (stereo partly shown),-31.6
12,Cc1cc(NC(=O)CN2C(=O)c3ccccc3S2(=O)=O)no1,10.2
13,O=C(c1ccc(N2CCN(S(=O)(=O)c3ccccc3)CC2)c([N+](=O)[O-])c1)N1CCOCC1,-35.1
14,O=[N+]([O-])c1ccc2nc(NCCCO)nc(-c3ccccc3)c2c1,-22.7
15,O=C(/C=C/c1ccc(Cl)cc1)Nc1ccc(CN2CCOCC2)cc1,-28
16,CC(=O)Nc1ccc(OCc2cccc3ccccc23)cc1,7.91
17,O=C(C[n+]1ccc(C(=O)N/N=C/c2ccc(Cl)cc2Cl)cc1)c1ccccc1.[Br-],-74.8
18,CCCOc1ccc(C(=O)Nc2cc(-c3nn4c(C)nnc4s3)ccc2C)cc1,15
19,CCOC(=O)C1=C(c2ccccc2)Nc2c(c(=O)n(C)c(=O)n2C)C1c1ccc(O)c(OC)c1 (stereo not shown),1.68
20,Cc1ccccc1NC(=O)C1CCCN1C(=O)NC1CCCCC1 (stereo not shown),15.1
21,O=S(=O)(c1ccc(F)cc1)N1CCC(n2cnc3ccccc32)CC1,-39.7
22,Cc1cc(NC(=O)c2cc([N+](=O)[O-])ccc2Cl)no1,8.65
23,Cc1cc(C(=O)Nn2c(-c3ccc(Br)cc3)nc3ccccc3c2=O)ccc1[N+](=O)[O-],8.86
24,COc1ccc2c(c1)[nH]c1c(=O)n(CCCN3CCOCC3)cnc12,-3.98
25,Cc1ccc(SCC(=O)NC2CCCCCC2)cc1,-1.43
26,CCN(CC)C(=O)CSc1nnc(-c2cccs2)n1Cc1ccco1,-11
27,Cc1ccc(-c2nc(CS(=O)CC(=O)NCCN(CC(C)C)CC(C)C)c(C)o2)cc1 (stereo not shown),-19.4
